20 molecules from PMC9911399, “Two distinct binding modes provide the RNA-binding protein RbFox with extraordinary sequence specificity” can be followed below.

Where a chain is given by its changes, count along the chain named. Some of the results follow.

The labels stand for the following.
T1: RBFOX1 RRM RbFoxmut (Fox-RRM*) (Homo sapiens, UniProt Q9NWB1 109-208, R118D;E147R;N151S;E152T)
T1 sequence: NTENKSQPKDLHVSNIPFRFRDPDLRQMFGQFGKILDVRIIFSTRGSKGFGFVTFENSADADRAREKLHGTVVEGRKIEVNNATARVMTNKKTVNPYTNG

B1: AACACUU (DNA:RNA)
RNA: GGGAGACCGGAAUUCAGAUUGUCCAACACUUUUAAAUCCCGUCGUAGCCACCA
DNA 1: CAATCTGAATTCCGGTCTCCC
DNA 2: TGGTGGCTACGACGGGATT
B2: UGAGUCU (DNA:RNA)
RNA: B1 RNA with A25U, A26G, C27A, A28G, C29U, U30C
DNA 1: CAATCTGAATTCCGGTCTCCC
DNA 2: TGGTGGCTACGACGGGATT
B3: GAUUUAC (DNA:RNA)
RNA: B1 RNA with A25G, C27U, A28U, C29U, U30A, U31C
DNA 1: CAATCTGAATTCCGGTCTCCC
DNA 2: TGGTGGCTACGACGGGATT
B4: ACCGGGG (DNA:RNA)
RNA: B1 RNA with A26C, A28G, C29G, U30G, U31G
DNA 1: CAATCTGAATTCCGGTCTCCC
DNA 2: TGGTGGCTACGACGGGATT
B5: UCCUAAG (DNA:RNA)
RNA: B1 RNA with A25U, A26C, A28U, C29A, U30A, U31G
DNA 1: CAATCTGAATTCCGGTCTCCC
DNA 2: TGGTGGCTACGACGGGATT
B6: CAGUACU (DNA:RNA)
RNA: B1 RNA with A25C, C27G, A28U, C29A, U30C
DNA 1: CAATCTGAATTCCGGTCTCCC
DNA 2: TGGTGGCTACGACGGGATT
B7: GCGAAGG (DNA:RNA)
RNA: B1 RNA with A25G, A26C, C27G, C29A, U30G, U31G
DNA 1: CAATCTGAATTCCGGTCTCCC
DNA 2: TGGTGGCTACGACGGGATT
B8: CUGGAAU (DNA:RNA)
RNA: B1 RNA with A25C, A26U, C27G, A28G, C29A, U30A
DNA 1: CAATCTGAATTCCGGTCTCCC
DNA 2: TGGTGGCTACGACGGGATT
B9: AAUCAUG (DNA:RNA)
RNA: B1 RNA with C27U, A28C, C29A, U31G
DNA 1: CAATCTGAATTCCGGTCTCCC
DNA 2: TGGTGGCTACGACGGGATT
B10: CAGCGCC (DNA:RNA)
RNA: B1 RNA with A25C, C27G, A28C, C29G, U30C, U31C
DNA 1: CAATCTGAATTCCGGTCTCCC
DNA 2: TGGTGGCTACGACGGGATT
B11: GAAAGCA (DNA:RNA)
RNA: B1 RNA with A25G, C27A, C29G, U30C, U31A
DNA 1: CAATCTGAATTCCGGTCTCCC
DNA 2: TGGTGGCTACGACGGGATT
B12: GAAGACC (DNA:RNA)
RNA: B1 RNA with A25G, C27A, A28G, C29A, U30C, U31C
DNA 1: CAATCTGAATTCCGGTCTCCC
DNA 2: TGGTGGCTACGACGGGATT
B13: CUGCGAC (DNA:RNA)
RNA: GGGAGACCGGAAUUCAGAUUGUCCCUGCGACUUAAAUCCCGUCGUAGCCACCA
DNA 1: CAATCTGAATTCCGGTCTCCC
DNA 2: TGGTGGCTACGACGGGATT
B14: GGCUAUA (DNA:RNA)
RNA: B1 RNA with A25G, A26G, A28U, C29A, U31A
DNA 1: CAATCTGAATTCCGGTCTCCC
DNA 2: TGGTGGCTACGACGGGATT
B15: AAUAAGC (DNA:RNA)
RNA: B1 RNA with C27U, C29A, U30G, U31C
DNA 1: CAATCTGAATTCCGGTCTCCC
DNA 2: TGGTGGCTACGACGGGATT
B16: GCCCGCU (DNA:RNA)
RNA: B1 RNA with A25G, A26C, A28C, C29G, U30C
DNA 1: CAATCTGAATTCCGGTCTCCC
DNA 2: TGGTGGCTACGACGGGATT
B17: UCUACGA (DNA:RNA)
RNA: B1 RNA with A25U, A26C, C27U, U30G, U31A
DNA 1: CAATCTGAATTCCGGTCTCCC
DNA 2: TGGTGGCTACGACGGGATT
B18: GGCAGCG (DNA:RNA)
RNA: B1 RNA with A25G, A26G, C29G, U30C, U31G
DNA 1: CAATCTGAATTCCGGTCTCCC
DNA 2: TGGTGGCTACGACGGGATT
B19: CUGGGUG (DNA:RNA)
RNA: B13 RNA with C28G, A30U, C31G
DNA 1: CAATCTGAATTCCGGTCTCCC
DNA 2: TGGTGGCTACGACGGGATT
B20: AGCUUAU (DNA:RNA)
RNA: B1 RNA with A26G, A28U, C29U, U30A
DNA 1: CAATCTGAATTCCGGTCTCCC
DNA 2: TGGTGGCTACGACGGGATT

This assay addresses T1, RBFOX1 RRM RbFoxmut (Fox-RRM*). The assay is described as follows: EMSA; HiTS-Eq, 1 nM pool, 10 min; buffer printed only for the single-RNA assays: 10 mM Tris pH 7.5, 150 mM NaCl, 3.4 mM EDTA, 0.001% NP-40, 30 C. As to conditions: tags: His6 N-terminal (pET28a); label: 5' 32P. Summed up: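 Relative association constants, normalised to the cognate motif, were derived by comparing read counts of each RNA species with those of the control reaction. The RNA sequenced was the free fraction, separated by 8% native PAGE after a 10 min equilibration in 50 µL of 1 nM 5′-radiolabelled RNA (7 randomized nucleotides) with increasing concentrations of purified wild-type or mutant RbFox RRM.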
B1: the binding signal was 0.0596 KA relative to UGCAUGU.

For the molecule B2, the binding signal was 0.119 KA relative to UGCAUGU.

As for B3, the binding signal is 0.0641 KA relative to UGCAUGU.

Consider B4, for which the binding signal was 0.0951 KA relative to UGCAUGU.

Consider B5, for which the binding signal was 0.0925 KA relative to UGCAUGU.

Regarding B6, the binding signal is 0.0898 KA relative to UGCAUGU.

As for B7, the binding signal was 0.0954 KA relative to UGCAUGU.

With B8, the binding signal was 0.103 KA relative to UGCAUGU.

Consider B9, for which the binding signal is 0.0748 KA relative to UGCAUGU.

On to B10, for which the binding signal was 0.174 KA relative to UGCAUGU.

With B11, the binding signal was 0.121 KA relative to UGCAUGU.

B12: the binding signal was 0.0506 KA relative to UGCAUGU.

Consider B13, for which the binding signal was 0.0896 KA relative to UGCAUGU.

With B14, the binding signal was 0.0958 KA relative to UGCAUGU.

In the case of B15, the binding signal was 0.0725 KA relative to UGCAUGU.

As to B16, the binding signal is 0.0828 KA relative to UGCAUGU.

For B17, the binding signal is 0.074 KA relative to UGCAUGU.

Consider B18, for which the binding signal was 0.0968 KA relative to UGCAUGU.

With B19, the binding signal was 0.347 KA relative to UGCAUGU.

B20: the binding signal is 0.132 KA relative to UGCAUGU.
